According to PubChem BioAssay (NCI):
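Step 1: Grow cells in 96-well plates. Step 2: Expose to compound for 48 hours at 5 concentrations. Step 3: Interpolate endpoints linearly; if unreached, use highest concentration. At the GI50, growth is halved.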 Some entries of the source have several records that differ or are many. Only these are listed. The source may hold further records. For some assays here: A record mostly stands for its own series of concentrations, not given here; some values may only mark the edge of a range. For some assays here: Values given together are repeats (runs, samples, wells, individuals or studies). Records carry a tag for their origin. Letters count within one entry.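 The concentration for full growth arrest is given as TGI.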

Legend:
Experiment in all cases: NCI-60 cell line screen, 48 h
[1] = system: NCI-H522 lung
[2] = system: MOLT-4 leukemia
[3] = system: HL-60(TB) leukemia
[4] = system: NCI/ADR-RES ovarian
[5] = system: SR leukemia
[6] = system: HCC-2998 colon
[7] = system: MALME-3M melanoma
[8] = system: CCRF-CEM leukemia
[9] = system: HS 578T breast
[10] = system: UO-31 renal
[11] = system: OVCAR-4 ovarian
[12] = system: XF 498 CNS
[13] = system: OVCAR-5 ovarian
[14] = system: M14 melanoma
[15] = system: LOX IMVI melanoma
[16] = system: A498 renal
[17] = system: SNB-19 CNS
[18] = system: RPMI-8226 leukemia
[19] = system: NCI-H23 lung
[20] = system: A549 NSCLC
[21] = system: KM20L2 colon
[22] = system: HOP-62 NSCLC
[23] = system: MCF7 breast
[24] = system: COLO 205 colon
[25] = system: SN12C renal
[26] = system: HCT-116 colon
[27] = system: HOP-92 NSCLC
[28] = system: SK-OV-3 ovarian
[29] = system: K-562 leukemia
[30] = system: T-47D breast
[31] = system: SK-MEL-5 melanoma
[32] = system: SF-268 CNS
[33] = system: UACC-62 melanoma
[34] = system: MDA-N
[35] = system: CAKI-1 renal
[36] = system: MDA-MB-435
[37] = system: UACC-257 melanoma
[38] = system: NCI-H226 lung
[39] = system: EKVX NSCLC
[40] = system: RXF 393 renal
[41] = system: OVCAR-3 ovarian
[42] = system: SF-295 CNS
[43] = system: SNB-75 CNS
[44] = system: NCI-H460 lung
[45] = system: KM12 colon
[46] = system: PC-3 prostate
[47] = system: SW-620 colon
[48] = system: DU-145 prostate
[49] = system: HT29 colon

## Nc1ccn([C@@H]2C=C(CO)[C@@H](O)[C@H]2O)c(=O)n1
[1]
  TGI: 6.15 µM and 326 µM
[2]
  TGI: 586 nM and 12.3 µM
[3]
  GI50: 62.5 nM [1 test] and 6.04 nM [mean of 3 tests]
  TGI: 4.4 µM, 44.1 µM, > 625 µM
[4]
  TGI: 1.53 µM, 272 µM, 180 µM
[5]
  TGI: 3.22 µM and 500 µM
[6]
  TGI: 2.7 µM, 500 µM, > 625 µM
[7]
  TGI: 493 µM and 5.19 µM
[8]
  GI50: 278 µM [1 test] and 31.6 nM [mean of 4 tests]
[9]
  TGI: 9.51 µM and 422 µM
[10]
  TGI: 7.49 µM, 242 µM, 114 µM
[11]
  TGI: > 625 µM [1 test] and 6.78 µM [mean of 4 tests] and 162 µM [mean of 8 tests]
[12]
  TGI: 204 µM and < 62.5 nM
[13]
  TGI: 4.19 µM and 335 µM
[14]
  TGI: 8.31 µM and 500 µM
[15]
  TGI: 3.44 µM, 42.5 µM, 1.13 µM
[16]
  TGI: 4.19 µM and 315 µM
[17]
  GI50: 68.9 nM [1 test] and 2.78 µM [mean of 2 tests]
[18]
  TGI: 45.2 µM [1 test] and 135 µM [mean of 10 tests] and 5.96 µM [mean of 3 tests]
[19]
  TGI: 6.22 µM and 387 µM
[20]
  TGI: 7.31 µM, 89.4 µM, > 625 µM
[21]
  GI50: 62.5 nM [1 test] and 5 nM [mean of 2 tests]
[22]
  TGI: 92.5 µM and 511 nM
[23]
  TGI: 7.07 µM, 486 µM, > 625 µM
[24]
  TGI: 5.86 µM and 195 µM
[25]
  TGI: 3.88 µM, 500 µM, 587 nM
[26]
  TGI: 3.16 µM, 38.8 µM, 1.89 µM
[27]
  TGI: 2.45 µM, 25.1 µM, 9.16 µM
[28]
  TGI: 4.38 µM, 130 µM, 4.53 µM

## O=C1C=CC2(C=C1)CCN=c1c(O)c3c(c(O)c12)=NC=N3
[1]
  GI50: 5.89 µM [sample A, mean of 2 tests] and > 100 µM [sample B, 1 test]
[29]
  GI50: 5.29 µM [sample A, mean of 2 tests] and > 100 µM [sample B, 1 test]
[30]
  GI50: 8.19 µM [sample A, mean of 2 tests] and > 100 µM [sample B, 1 test]
[8]
  GI50: 7.53 µM [sample A, mean of 2 tests] and > 100 µM [sample B, 1 test]
[9]
  GI50: 9.17 µM [sample A, mean of 2 tests] and > 100 µM [sample B, 1 test]
[31]
  TGI: 7.07 µM [sample A, mean of 2 tests] and > 100 µM [sample B, 1 test]
[32]
  GI50: 9.82 µM [sample A, mean of 2 tests] and > 100 µM [sample B, 1 test]
[15]
  GI50: 3.57 µM [sample A, mean of 2 tests] and > 100 µM [sample B, 1 test]
[33]
  GI50: 2.69 µM [sample A, mean of 2 tests] and > 100 µM [sample B, 1 test]
  TGI: 6.33 µM [sample A, mean of 2 tests] and > 100 µM [sample B, 1 test]
[19]
  GI50: 3.08 µM [sample A, mean of 2 tests] and > 100 µM [sample B, 1 test]
[34]
  GI50: 1.82 µM [sample A, mean of 2 tests] and > 100 µM [sample B, 1 test]
  TGI: 3.31 µM [sample A, mean of 2 tests] and > 100 µM [sample B, 1 test]
[35]
  GI50: 8.7 µM [sample A, mean of 2 tests] and > 100 µM [sample B, 1 test]
[36]
  GI50: 2.03 µM [sample A, mean of 2 tests] and > 100 µM [sample B, 1 test]
  TGI: 3.52 µM [sample A, mean of 2 tests] and > 100 µM [sample B, 1 test]
[26]
  GI50: 8.85 µM [sample A, mean of 2 tests] and > 100 µM [sample B, 1 test]
[37]
  GI50: 9.59 µM [sample A, mean of 2 tests] and > 100 µM [sample B, 1 test]

## CCNc1nc(N2CC(=O)Nc3cc(OC)ccc32)c2ccccc2n1
[38]
  GI50: 3.02 nM and 1.18 µM
[6]
  TGI: 9.38 nM and 1.4 µM
[10]
  GI50: 8.06 nM and 214 nM
[11]
  GI50: 0.955 nM and 798 nM
[16]
  TGI: 8.29 nM and 82.7 µM
[39]
  GI50: 0.556 nM and 22.3 nM
[40]
  TGI: 8.25 nM and > 100 µM
[41]
  TGI: 3.94 nM and 3.27 µM

## COC(=O)[C@@H](C)C[C@H](Cc1ccccc1)NC(=O)c1csc([C@@H](C[C@H](C(C)C)N(C)C(=O)[C@@H](NC(=O)[C@H]2CCCCN2C)C(C)C)OC(C)=O)n1
[42]
  GI50: 0.219 nM and 2.5 nM
[29]
  GI50: 0.205 nM and 2.5 nM
[5]
  GI50: < 0.1 nM and 2.5 nM
[43]
  GI50: 0.222 nM and 2.5 nM
[44]
  GI50: < 0.1 nM and 2.5 nM
[45]
  GI50: < 0.1 nM and 2.5 nM
[11]
  GI50: 0.289 nM and 3.62 µM
[46]
  GI50: < 0.1 nM and 2.5 nM
[47]
  GI50: 0.234 nM and 2.5 nM
[17]
  GI50: 0.494 nM and 2.37 µM
[33]
  GI50: 0.121 nM and 2.5 nM
[18]
  GI50: 0.137 nM and 2.5 nM
[23]
  GI50: < 0.1 nM and 2.5 nM
[26]
  GI50: 0.181 nM and 2.5 nM
[27]
  TGI: 450 nM and < 2.5 nM
[28]
  GI50: 0.243 nM and 2.5 nM
[48]
  GI50: < 0.1 nM and 2.5 nM
  TGI: 1.25 nM and > 25 µM
[49]
  GI50: < 0.1 nM and 2.5 nM
